Experimental data: PubChem BioAssay AID1346428 (National Center for Advancing Translational Sciences (NCATS), 2018)
Hit rate of the full screen: of about 48,000 compounds, about 1,200 (2.5%) were called active. About 2% were inconclusive and are not listed.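 Rule for the calls: active = activation of at least 60% and not above a set upper limit (about 1 call in 100 departs from these limits); inconclusive = activation of 40% to 60%, or above that upper limit; inactive = activation under 40%.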 Some of the results follow.

target: Probable G-protein coupled receptor 32 (Homo sapiens) (UniProt O75388); assay: qHTS for Agonists of Human Resolvin D1 Receptor DRV1; conditions: CHO-K1 GPR32 beta-arrestin PathHunter luminescence, 90 min; at 76.9 µM; hits give high values; zero percent set by DMSO-only wells; note: 0% is about no effect
Chain of UniProt O75388 (O75388 whole entry, looked up, the tested form may be a part): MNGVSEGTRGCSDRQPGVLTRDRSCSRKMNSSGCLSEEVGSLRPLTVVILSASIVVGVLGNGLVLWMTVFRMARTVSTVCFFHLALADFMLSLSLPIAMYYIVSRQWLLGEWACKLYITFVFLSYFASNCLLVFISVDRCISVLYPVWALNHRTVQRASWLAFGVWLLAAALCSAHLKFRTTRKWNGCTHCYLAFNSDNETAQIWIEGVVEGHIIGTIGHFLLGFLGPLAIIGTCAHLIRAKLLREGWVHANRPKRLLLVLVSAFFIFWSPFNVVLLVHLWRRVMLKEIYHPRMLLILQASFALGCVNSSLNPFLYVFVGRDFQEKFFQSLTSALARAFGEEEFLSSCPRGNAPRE
Method in brief: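 Agonism was scored as beta-arrestin recruitment to ProLink-fused GPR32 in stably transfected CHO-K1 cells, giving a chemiluminescent beta-Gal signal; compounds were incubated 90 min at 37 °C.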

Compound	activation
COc1ccc(CCNC(=O)c2cc(=O)[nH]c3ccc(S(=O)(=O)N4CCCCC4)cc23)cc1OC	inactive: -9.04%
CC(=O)Nc1c(C)nn(-c2ccccc2)c1N1CCC(C(=O)NCc2cccc(F)c2)CC1	inactive: -9.06%
Cc1ccc(N(CC(=O)N2CCN(c3cccc(C)c3C)CC2)S(=O)(=O)c2c(C)nn(C)c2C)cc1	inactive: -12.8%
CCN(c1cc(C)cc(C)c1)S(=O)(=O)c1nnc(NC(=O)c2ccccc2C)s1	inactive: 7.92%
CCCCN(c1ccccc1)c1ncnc2c1cnn2-c1cccc(C)c1	inactive: 2.17%
CC(=O)Nc1ccc2nc(SCCOc3ccccc3Cl)sc2c1	active: 69.4%
CCOC(=O)c1c(C)[nH]c(C)c1S(=O)(=O)N(C)CC(=O)Nc1ccc(C)c(F)c1	inactive: -18.9%
CN(C(=O)CSc1nc2ccccc2n1CC(=O)N(C)C1CCCCC1)c1ccc(F)cc1	inactive: -9.54%
CCc1ccccc1NC(=O)c1ccc2c(c1)c(C)c(C)n2Cc1ccccc1	inactive: -8.52%
Cc1cc(C)c(NC(=O)C2CCCN(C(=O)c3cnn(-c4ccccc4)c3-n3cccc3)C2)c(C)c1 (centres undefined)	inactive: 6.98%
COC(=O)c1cc2sccc2n1Cc1nc(-c2ccc(C)cc2)oc1C	inactive: -15.1%
CCc1ccc(S(=O)(=O)c2cn(Cc3ccc(OC)cc3)c3cc(OC)c(OC)cc3c2=O)cc1	inactive: -11.2%
O=C(COc1ccc(Br)cc1)Nc1ccc(C(=O)OC2CCCCC2)cc1	inactive: -11%
COc1ccc(NC(=O)CCc2c(C)nc3cc(-c4cccc(F)c4)nn3c2C)cc1Cl	inactive: -1.63%
CCc1nnc2c3ccccc3nc(N3CCN(c4cc(Cl)ccc4C)CC3)n12	inactive: 1.94%
CCOc1ccc(NC(=O)Cn2c(=O)n(-c3ccccc3)c(=O)c3c4c(sc32)CCCC4)cc1	inactive: 5.76%
O=C1CC(c2ccc(Br)cc2)c2c(ccc3ccccc23)N1 (centres undefined)	inactive: 20.7%
CCc1nc2nc(C)cc(Nc3ccc(F)c(Cl)c3)n2n1	inactive: -17.5%
Cc1ccc(CN2CCC(CNC(=O)Nc3cccc(C)c3C)C2)cc1 (centres undefined)	inactive: -27.9%
COC(=O)c1c(Oc2ccc(Br)cc2)nnc(-c2ccccc2)c1-c1ccccc1	inactive: -6.14%
Cc1c(Cl)cccc1NC(=O)Cn1c(=O)n(Cc2ccco2)c(=O)c2oc3ccccc3c21	inactive: -1.75%

Compound	activation
CC(=O)N1CCCc2cc(S(=O)(=O)N3CCCC(C(=O)Nc4ccc(C)c(F)c4)C3)ccc21 (centres undefined)	inactive: -0.0607%
Cc1cccc(C(=O)Nc2ccccc2OCc2cc(=O)n3cc(C)ccc3n2)c1	inactive: -0.64%
COc1cc(OC)c2c(C)c(CC(=O)N3CCCCC3)c(=O)oc2c1	inactive: 14.9%
CCN(CC)CCCNc1oc(-c2ccc(OC)cc2)nc1C#N	inactive: -13.9%
COc1ccccc1-c1c(C)nn2c(N3CCN(c4ccc(F)cc4)CC3)cc(C)nc12	inactive: -2.12%
CC(C)n1c(=O)c2oc3ccccc3c2n(CC(=O)Nc2ccccc2Cl)c1=O	inactive: -24.8%
CCn1c(C)c(C)c2cc(C(=O)NCCc3cc(OC)ccc3OC)ccc21	inactive: -11.7%
O=C(Nc1cccc(C(F)(F)F)c1)C1CCCN(S(=O)(=O)c2cccc3nonc23)C1 (centres undefined)	inactive: 40.2%
Cc1oc2ncn(CC(C)C)c(=O)c2c1C(=O)NCCCN(C)Cc1ccccc1	inactive: -14.6%
Cc1cc2oc(C(=O)Nc3ccc(S(=O)(=O)N(C)c4ccccc4)cc3)cc(=O)c2cc1C	inactive: 1.4%
Cc1oc2c(C)c3oc(=O)c(CCC(=O)N4CCCCC4)c(C)c3cc2c1C	inactive: -9.55%
CCOC(=O)c1c(SCC(=O)Nc2cccc(C)c2C)nc(=O)[nH]c1C	inactive: -13.2%
COc1cc(-c2nnc(SCCOc3ccccc3)o2)cc(OC)c1OC	inactive: 4.2%
CCOC(=O)Cn1c(=O)oc2cc(S(=O)(=O)Nc3ccccc3F)ccc21	inactive: -28%
COc1ccc(-c2noc(-c3ccc(NCCc4ccccc4)c([N+](=O)[O-])c3)n2)cc1	inactive: 3.74%
Cc1ccc(Cn2c(CO)cnc2SCC(=O)Nc2cccc(F)c2)cc1	inactive: 29%
CC(=O)N1CCc2c(sc(NC(=O)CSc3ccc(F)cc3)c2-c2nc3ccccc3s2)C1	inactive: -39.4%
O=C(Cn1cc(S(=O)(=O)Cc2ccccc2Cl)c2ccccc21)Nc1ccc(F)cc1F	inactive: 13.2%
COc1ccccc1N1CCN(C(=O)COc2ccccc2C#N)CC1	inactive: -8%
CCOc1ccc(CNC(=O)c2ccc3c(c2)N(Cc2ccccc2)CCS3)cc1	inactive: -23.9%
COC(=O)c1ccc2c(c1)N(Cc1cc(C)ccc1C)C(=O)c1ccccc1S2(=O)=O	inactive: -12.5%

Compound	activation
O=C(Cn1ncc2c(Cl)cccc21)NCc1cccc(F)c1	inactive: -7.68%
CCOc1ccc(S(=O)(=O)N2CCC(n3c(C)nc4cccnc43)CC2)cc1	active: 75.6%
Cc1cc(C)c(NC(=O)Cn2nnc(-c3nc(-c4ccncc4)no3)c2N)c(C)c1	inactive: -5.21%
Cc1cccc(-c2nnn3c2nc(NCCC(C)C)c2ccccc23)c1	inactive: -5.38%
CCOc1ccc(C2c3c(oc4ccccc4c3=O)C(=O)N2Cc2ccc3c(c2)OCO3)cc1 (centres undefined)	inactive: 8.4%
Cc1ccc(Nc2c(-c3ccc(N4CCOCC4)cc3)nc3ccc(Cl)cn23)cc1	inactive: -1.72%
Cc1cc2c(cc1S(=O)(=O)N1CCC(C(N)=O)CC1)OCC(=O)N2	inactive: 6.36%
COc1cn(CC(=O)Nc2ccc(C)cc2C)c(CN2CCCCC2)cc1=O	inactive: -7.72%
COc1cccc(C(=O)Nc2ccc(-c3nc4ccc(C)cc4s3)cc2)c1OC	inactive: -1.3%
O=C(CSc1nc2c([nH]c3ccccc32)c(=O)n1-c1cccc(C(F)(F)F)c1)N1CCCC1	inactive: -5.82%
CCOC(=O)c1cccc(NC(=O)C2(S(=O)(=O)c3ccc(C)cc3)CC2)c1	inactive: -0.321%
CCCNC(=O)C1CCC(Cn2c(=O)c3sccc3n(CC(=O)N3CCCC(C)C3)c2=O)CC1 (centres undefined)	inactive: 3.65%
CCOc1cccc(C2c3c(oc4ccc(F)cc4c3=O)C(=O)N2CCOC)c1 (centres undefined)	inactive: -2.3%
COc1ccc(S(=O)(=O)NCC(c2ccc(N(C)C)cc2)N2CCCC2)cc1F (centres undefined)	inactive: -12.4%
CC(=O)C1=C(c2ccc(C)cc2)N(C(C)=O)n2c(nnc2-c2ccccc2)S1	inactive: -25.1%
Cc1cccc(OCC(=O)NCC2(N3CCN(C)CC3)CCCCC2)c1	inactive: -14.3%
Cc1ccccc1Cn1cc(NC(=O)c2cc(-c3ccc(Cl)cc3)on2)cn1	inactive: -2.58%
Cc1ccc(Cl)cc1N1CCN(S(=O)(=O)c2ccc3oc(=O)c4ncn(C)c4c3c2)CC1	inactive: -4.59%
CCc1ccc(OCC(=O)Nc2ccc(Cl)c(-c3nc4cc(C)cc(C)c4o3)c2)cc1	inactive: -4.76%
Cc1cccc(NC(=O)CN2C(=O)COc3ccc(S(=O)(=O)Nc4ccccc4)cc32)c1C	inactive: 32.8%
Cc1[nH]c2ccc(C(=O)NCCc3ccccc3Cl)cc2c1C	inactive: -2.54%

Compound	activation
Cc1ccc(S(=O)(=O)c2nnn3c2nc(NCc2ccc(F)cc2)c2sccc23)cc1C	inactive: -19.8%
CC(C)OCCCn1c(=O)c2ccccc2n2c(-c3ccc(F)c(F)c3)nnc12	inactive: -33.7%
CCCS(=O)(=O)N1CC(=O)N(c2ccccc2C)C(C)(C(=O)NC2CCCCC2)C1 (centres undefined)	inactive: -0.428%
Cc1nn(-c2ccc(N3CCCC3)nn2)c(C)c1CCC(=O)NCc1ccc(F)cc1	inactive: -9.74%
CCC1CN(C(=O)N2CCC(C(=O)NCc3ccc(C)o3)CC2)c2ccccc2O1 (centres undefined)	inactive: -5.7%
COc1ccccc1OCCn1c(NC(=O)c2ccccc2)nc2ccccc21	inactive: -14.6%
Cc1ccc(NC(=O)C2CCN(c3ncccn3)CC2)cc1F	inactive: -8.22%
O=C(O)CNC(=O)CNC(=O)CNC(=O)CSC(=O)c1ccccc1	inactive: -1.76%
CC1(C)S[C@@H]2[C@H](N=CN3CCCCCC3)C(=O)N2[C@H]1C(=O)O	inactive: -19.4%
CCOc1ccccc1NC(=O)C(C)n1nnc2sc3c(c2c1=O)CCCC3 (centres undefined)	inactive: -7.78%
COc1ccc(NC(=O)CSc2nc3ccccc3n2CC(=O)Nc2cccc(C)c2C)cc1	inactive: -18.6%
CCc1cc2cc(OC)c(OC)cc2c(Cc2ccccc2)n1	inactive: 39.3%
CCn1c(CNC(=O)C23CC4CC(CC(C4)C2)C3)nnc1SCC(=O)Nc1ccc(OC)cc1	inactive: 6.37%
O=C(COc1cccc(Cl)c1)N1CCC(c2nc3ccccc3s2)CC1	active: 71.6%
Cc1ccc(CCNC(=O)c2ccc(Cn3c(=O)c4cccn4c4cccnc43)cc2)cc1	inactive: -20.2%
Cc1ccc(-n2c(SCC(N)=O)nc3c(oc4ccccc43)c2=O)cc1	inactive: -4.73%
COc1cc(OC)c(NC(=O)Nc2sc3nc4n(c(=O)c3c2C)CCC(C)CC4)cc1Cl (centres undefined)	inactive: 10.5%
O=S(=O)(Nc1ccc(-c2ccc(N3CCCC3)nn2)cc1)c1ccccc1Cl	inactive: 7.61%
O=C(O)c1cccc(NC(=O)c2cccc(S(=O)(=O)Nc3cccc(F)c3)c2)c1	inactive: -6.5%
Cc1cc(C)cc(NC(=O)c2cc(S(=O)(=O)N3CCOCC3)cn2C)c1	inactive: -15%
COc1cccc(C(=O)Nc2ccccc2SCc2cc(=O)c3cccc(C)c3[nH]2)c1	inactive: 13.2%
